Results as given in PubChem BioAssay (NCATS).
Where “and” joins values, the source holds several entries; their conditions need not be identical. Equal entries are not always repeated. The list shows a part of the results. Further columns of the screen follow, without active or inactive calls. Compounds called inactive in the main read-out are mostly missing here.

assay: qHTS Assay for Lipid Storage Modulators (AID 1519); conditions: Drosophila S3 cells, BODIPY lipid droplet/cell ratio, laser cytometry; measured here: cell count channel max response; cells loaded with oleic acid
Procedure, shortened: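 Cells seeded at 5,000 per well were treated with compounds over a concentration series and loaded with oleic acid (400 uM, as added). Lipid droplet fluorescence (488 nm excitation, 500-530 nm channel) was read by laser-scanning cytometry and normalized to 20 uM Triacsin C.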

Q: Which max response does the source give for `COc1ccc(NC(=O)/C=C/c2ccc(Cl)cc2)cc1` here?
A: Its max response is -12.9%.

Q: Which max response does the source give for `OC[C@H]1O[C@@H](n2cnc3cncnc32)[C@H](O)[C@@H]1O` here?
A: Its max response is 8.27%.

Q: With `CN1CCN(CCCN2c3ccccc3Sc3ccc(C(F)(F)F)cc32)CC1` as the molecule, how does the max response read?
A: Its max response is -90.5%.

Q: Which max response does the source give for `CC(=O)SC1CC2=CC(=O)CC[C@]2(C)C2CC[C@@]3(C)[C@@H](CC[C@@]34CCC(=O)O4)C12` (some centres not stated) here?
A: The max response was -30.3%.

Q: Which max response does the source give for `COC(=O)Nc1nc2ccc(C(=O)c3cccs3)cc2[nH]1` here?
A: The max response was 53.6% and 16.5%.

Q: For `CC(C)(C)NCC(O)COc1cccc2[nH]c(=O)[nH]c12` (configuration not stated), which max response is on record?
A: Its max response is 50.5%.

Q: For `NCC(O)C1CCCCCCC1` (configuration not stated), which max response is on record?
A: Its max response is 26.3%.

Q: For `C[C@H]1c2cccc(O)c2C(O)=C2C(=O)[C@]3(O)C(O)=C(C(N)=O)C(=O)C(N(C)C)[C@@H]3[C@@H](O)C21` (some centres not stated), which max response is on record?
A: Its max response is 51%.

Q: For `CCOC(=O)N1CCC(=C2c3ccc(Cl)cc3CCc3cccnc32)CC1`, which max response is on record?
A: Its max response is 54.5% and -49.7%.

Q: With `O=c1cc(-c2ccc(O)cc2)oc2cc(O)cc(O)c12` as the molecule, how does the max response read?
A: Its max response is -25.6% and 78.1%.

Q: Which max response does the source give for `CCCCOc1cc(CC2CNC(=O)N2)ccc1OC` (configuration not stated) here?
A: Its max response is 73.4%.

Q: For `CC(=O)OCC1=C(C(=O)O)N2C(=O)[C@@H](NC(=O)Cc3cccs3)[C@H]2SC1`, which max response is on record?
A: Its max response is 50.4%.

Q: Which max response does the source give for `O=C1C(SCCO)=C(SCCO)C(=O)c2ccccc21` here?
A: Its max response is -62.7% and -53.3%.

Q: For `CC(=O)[C@]1(O)Cc2c(O)c3c(c(O)c2[C@@H](O[C@H]2C[C@H](N)[C@H](O)[C@H](C)O2)C1)C(=O)c1ccccc1C3=O`, which max response is on record?
A: The max response was -98.4%.

Q: Which max response does the source give for `COC1=C(OC)C(=O)c2ccccc2C1=O` here?
A: The max response was 1.75%.

Q: With `NS(=O)(=O)c1cc2c(cc1Cl)NC(C1CC3C=CC1C3)NS2(=O)=O` (configuration not stated) as the molecule, how does the max response read?
A: The max response was -29.8%.

Q: With `O=C(Nc1cccc(C(=O)Nc2ccc(S(=O)(=O)O)c3cc(S(=O)(=O)O)cc(S(=O)(=O)O)c23)c1)Nc1cccc(C(=O)Nc2ccc(S(=O)(=O)O)c3cc(S(=O)(=O)O)cc(S(=O)(=O)O)c23)c1` as the molecule, how does the max response read?
A: Its max response is 40.8%.

Q: For `CN(C)CCCN1c2ccccc2Sc2ccc(C(F)(F)F)cc21`, which max response is on record?
A: The max response was 52.4%.

Q: Which max response does the source give for `CC/C(=C(\c1ccccc1)c1ccc(OCCN(C)C)cc1)c1ccccc1` here?
A: Its max response is -23.7% and 49.3% and -95.7%.

Q: With `NCCCS(=O)(=O)O` as the molecule, how does the max response read?
A: The max response was 37.5%.

Q: Which max response does the source give for `C[C@]12CC[C@@H]3c4ccc(O)cc4CC[C@H]3[C@@H]1CCC2=O` here?
A: Its max response is -46.8%.

Q: With `CC(C)(Sc1ccc(CCN(CCCCC2CCCCC2)C(=O)NC2CCCCC2)cc1)C(=O)O` as the molecule, how does the max response read?
A: The max response was 56.8%.

Q: With `COc1cc2ncnc(Nc3cccc(Cl)c3)c2cc1OC` as the molecule, how does the max response read?
A: Its max response is 35.9% and -61.1%.

Q: Which max response does the source give for `CC(C)c1ccc2c(c1)c(SC(C)(C)C)c(CC(C)(C)C(=O)O)n2Cc1ccc(Cl)cc1` here?
A: The max response was -42.8% and -55.1%.

Q: Which max response does the source give for `Oc1ccc(/C=C/c2cc(O)cc(O)c2)cc1` here?
A: Its max response is 57.3% and 43.4%.

Q: With `Oc1ccc(-c2nc(-c3ccc(F)cc3)c(-c3ccncc3)[nH]2)cc1` as the molecule, how does the max response read?
A: Its max response is 95.8% and 1.66%.

Q: With `O=C1CCC(c2ccc(-n3ccnc3)cc2)=NN1` as the molecule, how does the max response read?
A: Its max response is 39.4%.

Q: Which max response does the source give for `C[n+]1cc2c3c(ccc2c2ccc4cc5c(cc4c21)OCO5)OCO3` here?
A: Its max response is -22.1% and -48% and -57.6%.

Q: With `Oc1cc(O)cc(/C=C/c2ccc(O)c(O)c2)c1` as the molecule, how does the max response read?
A: The max response was 51.7%.

Q: With `Fc1ccc(C(c2ccc(F)cc2)N2CCN(C/C=C/c3ccccc3)CC2)cc1` as the molecule, how does the max response read?
A: Its max response is -57.4%.

Q: With `O=C1c2c(O)ccc(O)c2C(=O)c2c(NCCNCCO)ccc(NCCNCCO)c21` as the molecule, how does the max response read?
A: Its max response is -24.1%.

Q: For `O=C(Nc1ccc([N+](=O)[O-])cc1Cl)c1cc(Cl)ccc1O`, which max response is on record?
A: Its max response is -49% and -31.2% and 6.82%.
